# The supplement of paper PMC12067093, “Discovery and optimisation of a covalent ligand for TRIM25 and its application to targeted protein ubiquitination” (Chemical Science, 2025)
# The full data set covers some 21,000 targets. This sample favours those with the largest changes.
# Compound: CC1Cc2ccccc2N1C(=O)C1CCCN(C1)C(=O)CCl (mixture of isomers) [TRIM25 ligand 11 (diastereomer mixture)]
# Experiment: probe-labelled cysteine peptide fold change vs DMSO (competition) (log2 fold change); higher = less target engagement (more negative = stronger competition)
# Settings: THP-1, incubation time: 4 h
# 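Note: competitive chemoproteomic profiling in live THP-1 cells with an iodoacetamide desthiobiotin (IA-DTB) probe, comparing probe-labelled peptide intensities in compound-treated cells against DMSO-treated controls.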
Target,probe-labelled cysteine peptide fold change (10 µM),probe-labelled cysteine peptide fold change (50 µM)
LRP1B_Q9NZR2_1079_DCEDGSDEK (UniProt Q9NZR2),0.738,0.352
KDM3B_Q7LBC6_1357_ACNLTDTQK (UniProt Q7LBC6),0.628,0.354
LPCAT4_Q643R3_206_WPQVLFFPEGTCSNKK (UniProt Q643R3),0.0291,-0.0279
KIF23_Q02241_412_MIVCVNPK (UniProt Q02241),-0.114,0.268
KDM5A_P29375_838_AFVQQLFSLPCVISQAR (UniProt P29375),-1.07,-0.206
IFI16_Q16666_351_MDVVGTGQCHNIPCEEGDK (UniProt Q16666),0.255,0.141
IRF2BPL_Q9H1B7_385_DTLLTLAGCTPYEVR (UniProt Q9H1B7),0.111,0.0542
IPO13_O94829_951_EFTLLCR (UniProt O94829),0.0121,0.182
LRRC8A_Q8IWT6_684_IPTQLFYCR (UniProt Q8IWT6),0.014,0.351
INF2_Q27J81_104_ISDALLQLTCVSCVR (UniProt Q27J81),0.553,1.47
IARS_P41252_526_ISEVFDCWFESGSMPYAQVHYPFENK (UniProt P41252),0.0281,0.112
KIF15_Q9NS87_949_CEQQMAK (UniProt Q9NS87),-0.0346,0.0782
KIF5B_P33176_632_ELAACQLR (UniProt P33176),-0.102,0.0204
LRPPRC_P42704_930_CVANNQVETLEK (UniProt P42704),0.0147,0.0311
LASP1_Q14847_29+32_ACFHCETCK (UniProt Q14847),-0.0749,-0.0823
LRPPRC_P42704_571_YCQEPR (UniProt P42704),0.0453,0.545
LRRC59_Q96AG4_48_ATILDLSCNK (UniProt Q96AG4),-0.0218,-0.245
LMAN1_P49257_190_NNPAIVIIGNNGQIHYDHQNDGASQALASCQR (UniProt P49257),0.0166,-0.00596
LGALS1_P09382_17_PGECLR (UniProt P09382),0.188,1
ITPR1_Q14643_1805_GEMSLAEVQCHLDK (UniProt Q14643),0.154,0.0484
KDM2B_Q8NHM5_699_FNLMLMECSICNEIIHPGCLK (UniProt Q8NHM5),0.13,-0.134
KIF5B_P33176_421_KCEEEIAK (UniProt P33176),-0.0979,-0.0437
LRCH1_Q9Y2L9_613_VSLHEDLGAALMDGVVLCHLVNHIRPR (UniProt Q9Y2L9),-0.0397,-0.122
IDE_P14735_171_FAQFFLCPLFDESCK (UniProt P14735),0.0536,-0.153
ITPRIP_Q8IWB1_268_LGEDMLCLLHGR (UniProt Q8IWB1),-0.0198,-0.0849

Target,probe-labelled cysteine peptide fold change (10 µM),probe-labelled cysteine peptide fold change (50 µM)
JAK1_P23458_257_TICDSSVSTHDLK (UniProt P23458),0.0925,-0.0679
KDM2B_Q8NHM5_991_RPPGICERPHR (UniProt Q8NHM5),0.0178,-0.0661
LDHB_P07195_294_GMYGIENEVFLSLPCILNAR (UniProt P07195),0.0179,0.0309
LARS_Q9P2J5_84_CCLFPFGLHCTGMPIK (UniProt Q9P2J5),0.114,-0.0329
ITPR1_Q14643_1255_LAHEFLQNFCAGNQQNQALLHK (UniProt Q14643),0.145,0.261
KPNA5_O15131_427_PLCDLLTVMDSK<|>KPNA6_O60684_427_PLCDLLTVMDSK<|>KPNA1_P52294_429_PLCDLLTVMDSK (UniProt P52294+O60684+O15131),0.157,0.0185
ILF2_Q12905_37_PFVPHIPFDFYLCEMAFPR (UniProt Q12905),-0.189,-0.12
HUWE1_Q7Z6Z7_3658_AQCETLSPDGLPEEQPQTTK (UniProt Q7Z6Z7),,-0.227
ITGA4_P13612_902_ADPHCLNFLCNFGK (UniProt P13612),0.0594,0.126
ITPK1_Q13572_137_KIEAYMEDDRICSPPFMELTSLCGDDTMR (UniProt Q13572),-0.151,0.168
ITGB2_P05107_590_VECSGR (UniProt P05107),0.104,0.593
ITGA7_Q13683_539+546_SIDLEQPNCAGGHSVCVDLR (UniProt Q13683),-0.34,-0.672
LIG3_P49916_499_CPNGMFSEIKYDGER (UniProt P49916),0.235,0.603
LIG1_P18858_508_QTFCEVPDLDR (UniProt P18858),0.039,-0.0301
ITSN2_Q9NZM3_530_QCDLEIMEIK (UniProt Q9NZM3),-0.0296,-0.0823
LONP1_P36776_520_ILCFYGPPGVGK (UniProt P36776),-0.00908,-0.0802
IRF2BP2_Q7Z5L9_40_GCVNYEGADRVEFVIETAR (UniProt Q7Z5L9),-0.162,0.0536
LDLR_P01130_34_NEFQCQDGK (UniProt P01130),-0.0476,-0.115
KDM5B_Q9UGL1_1072_ECAVNTFLTENSPYSLLEVLCPR (UniProt Q9UGL1),0.276,0.679
LRRFIP1_Q32MZ4_750_CEMSEHPSQTVR (UniProt Q32MZ4),-0.0228,-0.698
LCP1_P13796_336_DDIQRAECMLQQAER (UniProt P13796),-0.722,-0.332
ITGB1_P05556_500_HCECSTDEVNSEDMDAYCR (UniProt P05556),0.0825,0.15
ITPR1_Q14643_638_FLDYLSDLCVSMNK (UniProt Q14643),0.0134,0.00777
LDHA_P00338_163_VIGSGCNLDSAR (UniProt P00338),0.0126,0.12
LDHA_P00338_35_ITVVGVGAVGMACAISILMK (UniProt P00338),-0.464,-0.161

Target,probe-labelled cysteine peptide fold change (10 µM),probe-labelled cysteine peptide fold change (50 µM)
IDH2_P48735_308_SSGGFVWACK (UniProt P48735),0.0119,0.106
JAK1_P23458_716_DLVHGNVCTK (UniProt P23458),-0.0532,0.053
INSR_P06213_674_QAEDSELFELDYCLK (UniProt P06213),-0.0631,-0.267
KLHL26_Q53HC5_38_CTFSAPSHSTSLLQGLATLR (UniProt Q53HC5),0.348,0.0962
JMJD1C_Q15652_990_DCHLHR (UniProt Q15652),-0.817,-0.482
KCTD5_Q9NXV2_25_GGIGAGLGGGLCR (UniProt Q9NXV2),0.0823,-0.0264
IP6K1_Q92551_275_VCGMQVYQLDTGHYLCR (UniProt Q92551),0.111,-0.0704
IQGAP1_P46940_45_QNVAYEYLCHLEEAK (UniProt P46940),0.174,0.169
KCTD2_Q14681_192_VLQCQEEELTQMVSTMSDGWK<|>KCTD5_Q9NXV2_163_VLQCQEEELTQMVSTMSDGWK (UniProt Q9NXV2+Q14681),0.121,-0.118
KYNU_Q16719_22_CHPTDER (UniProt Q16719),0.702,0.359
IPO4_Q8TEX9_42_APAALPALCDLLASAADPQIR (UniProt Q8TEX9),-0.024,-0.077
INF2_Q27J81_758_QLPIFCQLILR (UniProt Q27J81),-0.0235,-0.0449
IRAK3_Q9Y616_572_VNIDPSSEAPGHSCR (UniProt Q9Y616),-0.134,-0.243
LENG9_Q96B70_7_GSRPPCGATSSAR (UniProt Q96B70),0.671,0.504
KIAA0930_Q6ICG6_269_VSTGDTSPCGTEEDSSPASPMHER (UniProt Q6ICG6),-0.0849,-0.563
ITGB5_P18084_602_DGQICSER (UniProt P18084),-0.145,0.568
INTS13_Q9NVM9_178_MLEDCVQETIHEHNK (UniProt Q9NVM9),-0.112,0.0281
KCTD5_Q9NXV2_6_AENHCELLSPAR (UniProt Q9NXV2),-0.123,-0.666
ITGB1_P05556_574_SNGLICGGNGVCK (UniProt P05556),0.0213,0.00706
IFI35_P80217_193_LCQIGQFTVPLGGQQVPLR (UniProt P80217),0.107,0.228
KLHL36_Q8N4N3_465_NLLCYDHR (UniProt Q8N4N3),-0.0729,0.057
LSM12_Q3MHD2_20_TCQEQR (UniProt Q3MHD2),0.578,1
IMPA2_O14732_136_QELEFGVIYHCTEER (UniProt O14732),0.386,0.277
ITGA4_P13612_183_IAPCYQDYVK (UniProt P13612),0.0632,0.141
KPNA6_O60684_427_YLVSLGCIKPLCDLLTVMDSK (UniProt O60684),-0.563,-0.279
